# According to a collection of fitness landscapes (doi:10.1126/science.1257360):
# Some of the results follow.
# B1: PhoQ; a variant is named by its letters at X, in order, P23837 (parent)
# chain: MKKLLRLFFPLSLRVRFLLATAAVVLVLSLAYGMVALIGYSVSFDKTTFRLLRGESNLFYTLAKWENNKLHVELPENIDKQSPTMTLIYDENGQLLWAQRDVPWLMKMIQPDWLKSNGFHEIEADVNDTSLLLSGDHSIQQQLQEVREDDDDAEMTHSVAVNVYPATSRMPKLTIVVVDTIPVELKSSYMVWSWFIYVLSANLLLVIPLLWVAAWWSLRPIEALAKEVRELEEHNRELLNPATTRELTSLVRNLNRLLKSERERYDKYRTTLTDLTHSLKTPLXXLQXXLRSLRSEKMSVSDAEPVMLEQISRISQQIGYYLHRASMRGGTLLSRELHPVAPLLDNLTSALNKVYQRKGVNISLDISPEISFVGEQNDFVEVMGNVLDNACKYCLEFVEISARQTDEHLYIVVEDDGPGIPLSKREVIFDRGQRVDTLRPGQGVGLAVAREITEQYEGKIVAGESMLGGARMEVIFGRQHSAPKDE
# Variants of: B1
# Experiment: enrichment ratio after two sorts for PhoP signalling (ratio (wild type AVST 3.29)); higher = more functional
# Details: with PhoP (E. coli)
row,Variant,enrichment ratio
1,QERA,≤ 0.25
2,RTTV,≤ 0.25
3,SDKD,≤ 0.25
4,LHQD,≤ 0.25
5,AYKP,≤ 0.25
6,ALFA,≤ 0.25
7,LVPA,≤ 0.25
8,WAFA,≤ 0.25
9,GQWT,≤ 0.25
10,GCQF,≤ 0.25
11,IRVS,≤ 0.25
12,QERK,≤ 0.25
13,SEIA,13.7
14,SCND,6.36
15,NNDD,≤ 0.25
16,DQGQ,≤ 0.25
17,DWTA,≤ 0.25
18,GSIA,2.35
19,LWFL,≤ 0.25
20,RHNE,≤ 0.25
21,WDFT,≤ 0.25
22,GQLV,7.76
23,WQFF,≤ 0.25
24,WTDK,≤ 0.25

row,Variant,enrichment ratio
1,GHKI,≤ 0.25
2,DIIW,≤ 0.25
3,TIVS,≤ 0.25
4,SVMS,8.47
5,ARTQ,≤ 0.25
6,QREL,≤ 0.25
7,KTVS,≤ 0.25
8,YNDE,≤ 0.25
9,VLGW,≤ 0.25
10,NAFY,≤ 0.25
11,ELNQ,≤ 0.25
12,GFSL,≤ 0.25
13,FCFC,≤ 0.25
14,PCQH,≤ 0.25
15,DLPN,≤ 0.25
16,WRTF,≤ 0.25
17,IKVG,≤ 0.25
18,KRCT,≤ 0.25
19,INVM,1.19
20,RKQC,≤ 0.25
21,YDDF,≤ 0.25
22,RKWV,≤ 0.25
23,EIPW,≤ 0.25
24,PNEY,≤ 0.25

row,Variant,enrichment ratio
1,AATH,10.7
2,HETG,4.38
3,KKNW,≤ 0.25
4,YGMD,≤ 0.25
5,SVVI,0.732
6,RLMV,≤ 0.25
7,PYVP,≤ 0.25
8,VEKD,≤ 0.25
9,TGPY,≤ 0.25
10,VSKH,≤ 0.25
11,AQCK,29.5
12,PASP,≤ 0.25
13,KLWT,≤ 0.25
14,FESE,≤ 0.25
15,DVQV,≤ 0.25
16,WEFI,≤ 0.25
17,PCAY,≤ 0.25
18,DKCK,≤ 0.25
19,IKYG,≤ 0.25
20,QRVK,≤ 0.25
21,RHMI,≤ 0.25
22,KATT,≤ 0.25
23,MFVH,≤ 0.25
24,VWKG,≤ 0.25

row,Variant,enrichment ratio
1,CSVT,3.01
2,WATW,≤ 0.25
3,PVKH,≤ 0.25
4,LFFY,≤ 0.25
5,RVAR,≤ 0.25
6,TMFA,≤ 0.25
7,EDLG,≤ 0.25
8,SLPQ,≤ 0.25
9,PVPT,≤ 0.25
10,PPTD,≤ 0.25
11,GYGM,≤ 0.25
12,LSCE,≤ 0.25
13,TEHT,27.2
14,LAIC,≤ 0.25
15,NVSD,≤ 0.25
16,YEQM,≤ 0.25
17,HDTL,≤ 0.25
18,TIAM,9.93
19,YLGH,≤ 0.25
20,VSTQ,≤ 0.25
21,WMPT,≤ 0.25
22,YKSV,≤ 0.25
23,FRYY,≤ 0.25
24,MRGY,≤ 0.25

row,Variant,enrichment ratio
1,HFEV,≤ 0.25
2,PPPD,≤ 0.25
3,TLPT,≤ 0.25
4,HEYA,≤ 0.25
5,SKMH,3.94
6,SRAH,≤ 0.25
7,RNAF,≤ 0.25
8,SKWD,≤ 0.25
9,WGMD,≤ 0.25
10,SGAF,1.22
11,AIRP,≤ 0.25
12,LGEY,≤ 0.25
13,TQAI,3.21
14,EFHF,≤ 0.25
15,KVQN,≤ 0.25
16,PYKC,≤ 0.25
17,TNPF,≤ 0.25
18,ISSF,≤ 0.25
19,PAWF,≤ 0.25
20,YIKH,≤ 0.25
21,MKWN,≤ 0.25
22,FVLT,≤ 0.25
23,TSWG,16.6
24,TWPW,≤ 0.25

row,Variant,enrichment ratio
1,AKTL,12.5
2,GQFG,≤ 0.25
3,PQVP,≤ 0.25
4,RMRW,≤ 0.25
5,WRYI,≤ 0.25
6,VGLA,0.487
7,LEPG,≤ 0.25
8,HINF,≤ 0.25
9,MSTQ,≤ 0.25
10,TPQD,≤ 0.25
11,KPYD,≤ 0.25
12,DKFC,≤ 0.25
13,RVVL,≤ 0.25
14,PSHL,≤ 0.25
15,IEYF,≤ 0.25
16,EEMI,≤ 0.25
17,TEDF,≤ 0.25
18,HTLQ,1.59
19,DHHD,≤ 0.25
20,SPDQ,≤ 0.25
21,FQGY,≤ 0.25
22,VSIN,≤ 0.25
23,LCIW,≤ 0.25
24,ASWF,≤ 0.25

row,Variant,enrichment ratio
1,DDRR,≤ 0.25
2,PTKR,≤ 0.25
3,MATV,≤ 0.25
4,ADPK,≤ 0.25
5,KTNL,≤ 0.25
6,NWES,≤ 0.25
7,YCWF,≤ 0.25
8,LRNF,≤ 0.25
9,PVWN,≤ 0.25
10,PKYN,≤ 0.25
11,VTIA,≤ 0.25
12,SGRS,≤ 0.25
13,LYNI,≤ 0.25
14,FTPC,≤ 0.25
15,YISC,0.923
16,GFWA,≤ 0.25
17,TWDA,≤ 0.25
18,FNPV,≤ 0.25
19,APHT,≤ 0.25
20,LLGW,≤ 0.25
21,KFRK,≤ 0.25
22,TDHW,≤ 0.25
23,GGLN,7.34
24,KVYR,≤ 0.25

row,Variant,enrichment ratio
1,SQSL,9.58
2,YKAR,≤ 0.25
3,QPCY,≤ 0.25
4,RKWL,≤ 0.25
5,NTAR,≤ 0.25
6,PIQI,≤ 0.25
7,IHQT,≤ 0.25
8,LLQM,≤ 0.25
9,SLWW,≤ 0.25
10,GHDE,≤ 0.25
11,SPII,≤ 0.25
12,HRPW,≤ 0.25
13,LPSM,≤ 0.25
14,QPPK,≤ 0.25
15,FQIY,≤ 0.25
16,VATH,≤ 0.25
17,QLKT,≤ 0.25
18,TGNM,2.24
19,VYSP,≤ 0.25
20,TTLN,23.9
21,RTAP,≤ 0.25
22,FEFV,1.52
23,PVFI,≤ 0.25
24,WEAV,≤ 0.25

row,Variant,enrichment ratio
1,WMRL,≤ 0.25
2,HRRD,≤ 0.25
3,GDRY,≤ 0.25
4,TPPK,≤ 0.25
5,FLIA,≤ 0.25
6,IKNT,≤ 0.25
7,QGTL,4.13
8,KYMT,≤ 0.25
9,RMYR,≤ 0.25
10,LYCH,≤ 0.25
11,YLLC,≤ 0.25
12,RCYL,≤ 0.25
13,WVMF,≤ 0.25
14,TRYM,1.45
15,QDKR,≤ 0.25
16,QMVQ,≤ 0.25
17,HNMK,≤ 0.25
18,FWAG,≤ 0.25
19,GIWY,≤ 0.25
20,ATPW,≤ 0.25
21,MFTT,≤ 0.25
22,GSVD,≤ 0.25
23,CISH,≤ 0.25
24,KDLG,≤ 0.25

row,Variant,enrichment ratio
1,NLMK,≤ 0.25
2,NQDN,≤ 0.25
3,YMVQ,≤ 0.25
4,KSKR,≤ 0.25
5,FKVM,≤ 0.25
6,PHMP,≤ 0.25
7,THVC,≤ 0.25
8,IENM,≤ 0.25
9,SERG,≤ 0.25
10,YLNW,≤ 0.25
11,DAYH,≤ 0.25
12,RKPQ,≤ 0.25
13,QCIY,≤ 0.25
14,SQCV,6.68
15,IPYP,≤ 0.25
16,WQNE,≤ 0.25
17,SESM,10.5
18,VGPG,≤ 0.25
19,DYAQ,≤ 0.25
20,RWDP,≤ 0.25
21,DTPG,≤ 0.25
22,PKVF,≤ 0.25
23,ENWG,≤ 0.25
24,PCWF,≤ 0.25

row,Variant,enrichment ratio
1,DWLA,≤ 0.25
2,DTIK,≤ 0.25
3,TRST,≤ 0.25
4,YQVF,≤ 0.25
5,MMCW,≤ 0.25
6,VYQW,≤ 0.25
7,GWVF,≤ 0.25
8,MWSI,≤ 0.25
9,DRMR,≤ 0.25
10,RNFI,≤ 0.25
11,LHGF,≤ 0.25
12,MFQQ,≤ 0.25
13,LLAR,≤ 0.25
14,RKCA,≤ 0.25
15,TSSC,12.8
16,KKLI,≤ 0.25
17,PFIY,≤ 0.25
18,LARY,≤ 0.25
19,FRMP,≤ 0.25
20,EKCN,≤ 0.25
21,HTGM,≤ 0.25
22,QMHV,≤ 0.25
23,HCRR,≤ 0.25
24,ITSM,2.11

row,Variant,enrichment ratio
1,NWHN,≤ 0.25
2,TSTE,6.55
3,AEIS,10.8
4,FNLQ,1.86
5,SCWR,≤ 0.25
6,PPMN,≤ 0.25
7,SKIG,0.558
8,HIDI,≤ 0.25
9,FHME,≤ 0.25
10,SFER,≤ 0.25
11,KRVM,≤ 0.25
12,VRKQ,≤ 0.25
13,NMYC,≤ 0.25
14,LKNV,≤ 0.25
15,WEDH,≤ 0.25
16,LTNS,≤ 0.25
17,FQNE,≤ 0.25
18,FYRS,≤ 0.25
19,PNFN,≤ 0.25
20,HPAL,≤ 0.25
21,DEQF,≤ 0.25
22,RSVD,0.314
23,FGNT,≤ 0.25
24,MSCT,0.559

row,Variant,enrichment ratio
1,RFDC,0.461
2,EHAV,≤ 0.25
3,EVDA,≤ 0.25
4,YNQN,≤ 0.25
5,TVPM,≤ 0.25
6,ANEI,≤ 0.25
7,YFCV,≤ 0.25
8,YCCV,≤ 0.25
9,QCAM,4.77
10,YRVE,≤ 0.25
11,VMKF,≤ 0.25
12,NHKR,≤ 0.25
13,HYWE,≤ 0.25
14,WEHH,≤ 0.25
15,FPIK,≤ 0.25
16,DGLF,≤ 0.25
17,KSDC,≤ 0.25
18,WDQM,≤ 0.25
